Source: PMC4336329 (PLoS ONE, 2015)
Out of some 310,000 compounds screened, about 2,200 (0.71%) showed an effect of 50% or more. Effects have a minus sign here. The list shows a part of the results.

Target: human ether-à-go-go-related gene (hERG) potassium channel (human, UniProt Q12809)
Assay: primary screen, population patch clamp on CHO cells stably expressing hERG

Sequence of human ether-à-go-go-related gene (hERG) potassium channel (Q12809 whole entry, looked up): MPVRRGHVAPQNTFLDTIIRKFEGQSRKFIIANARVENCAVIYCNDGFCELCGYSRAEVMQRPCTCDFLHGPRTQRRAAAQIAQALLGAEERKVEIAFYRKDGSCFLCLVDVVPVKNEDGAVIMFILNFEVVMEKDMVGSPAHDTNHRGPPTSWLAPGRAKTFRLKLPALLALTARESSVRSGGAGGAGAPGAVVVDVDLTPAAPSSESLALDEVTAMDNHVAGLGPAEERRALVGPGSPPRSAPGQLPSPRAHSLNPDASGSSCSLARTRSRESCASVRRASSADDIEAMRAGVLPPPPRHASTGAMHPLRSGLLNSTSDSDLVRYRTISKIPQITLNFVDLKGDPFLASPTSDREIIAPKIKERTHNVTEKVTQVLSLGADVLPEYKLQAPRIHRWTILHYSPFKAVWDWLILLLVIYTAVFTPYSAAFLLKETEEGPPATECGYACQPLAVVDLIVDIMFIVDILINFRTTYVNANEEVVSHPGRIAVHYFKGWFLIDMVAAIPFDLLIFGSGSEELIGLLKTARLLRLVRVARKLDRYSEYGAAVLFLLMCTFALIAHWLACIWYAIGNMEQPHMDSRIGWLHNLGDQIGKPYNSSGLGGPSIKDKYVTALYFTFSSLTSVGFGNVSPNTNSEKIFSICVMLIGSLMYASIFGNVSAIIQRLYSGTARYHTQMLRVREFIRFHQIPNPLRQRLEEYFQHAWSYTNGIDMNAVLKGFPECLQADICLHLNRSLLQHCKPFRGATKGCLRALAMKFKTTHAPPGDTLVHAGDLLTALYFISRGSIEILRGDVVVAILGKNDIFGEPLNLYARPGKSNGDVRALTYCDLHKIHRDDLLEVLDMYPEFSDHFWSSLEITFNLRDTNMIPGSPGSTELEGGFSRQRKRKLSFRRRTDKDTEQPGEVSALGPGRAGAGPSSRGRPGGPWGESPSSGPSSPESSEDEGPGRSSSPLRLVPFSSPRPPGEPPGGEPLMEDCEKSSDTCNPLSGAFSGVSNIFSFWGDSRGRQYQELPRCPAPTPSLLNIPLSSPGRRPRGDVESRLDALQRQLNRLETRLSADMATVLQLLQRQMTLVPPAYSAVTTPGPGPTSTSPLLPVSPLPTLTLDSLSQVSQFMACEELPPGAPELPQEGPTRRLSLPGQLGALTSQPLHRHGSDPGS

Compound	hERG current change (%, negative = inhibition) at 1uM [%]
COc1ccc(NC(=O)C2(S(=O)(=O)c3ccc(C)cc3)CC2)cc1OC	7.72
Cc1ccccc1NS(=O)(=O)c1ccc2c(c1)n(C)c(=O)n2C	7.79
CCCNC(=O)c1c(CSc2ccc(Cl)cc2)noc1C(=O)NCc1ccccc1	11.5
CCCC1(c2ccccc2)NC(=O)N(CC(=O)Nc2sc(-c3ccccc3)cc2C(=O)OCC)C1=O (stereo not shown)	18.4
CCC(C)NC(=O)c1n[nH]c(=O)c2ccccc12 (stereo not shown)	-4.71
Cc1ccnc2nc(C(=O)OCC(=O)NC3CCC(C)CC3)nn12 (stereo not shown)	3.89
Cc1sc2ncnc(Sc3nc4ccccc4s3)c2c1C	6.29
O=C(O)c1sccc1SCc1ccc(Cl)c(Cl)c1	13.2
CCOc1ccccc1NC(=O)CSc1ccc([N+](=O)[O-])cc1	9.71
Cc1nnc(SCC(=O)Nc2nc3ccccc3s2)n(N)c1=O	3.52
Cc1ccc(Cl)cc1Nc1nc(N2CCOCC2)nc(N2CCOCC2)n1	7.4
CCc1ccccc1NC(=O)c1sc2nc(C)cc(C)c2c1N	9.99
C/C(=N\NC(=O)NC1CCCCC1)c1ccc(Cl)s1	12.3
CCOc1ccc(CN2CCN(Cc3cccn3-c3ncccn3)CC2CCO)cc1 (stereo not shown)	-84
CC(NC(=O)COc1ccc(Br)cc1)C1CCCO1 (stereo not shown)	14.6
COc1ccc(Cc2nnc(SCC(=O)NC3(C#N)CCCCC3)n2N)cc1	11.7
CCCCOc1ccc(-c2nc(-c3cccnc3)no2)cc1	0.657
Cc1ccc2[nH]c(=O)c(C(c3nnnn3CC3CCCO3)N3CCCc4ccccc43)cc2c1 (stereo not shown)	-11.7
CCC(=O)Nc1ccc(-c2ccc(N3CCCCC3)nn2)cc1	19.4
COc1ccc(C2CC(=O)Oc3c(C(CCN4CCOCC4)c4cc(OC)c(OC)c(OC)c4)c(OC)cc(OC)c32)cc1 (stereo not shown)	14.6

Compound	hERG current change (%, negative = inhibition) at 1uM [%]
COC(=O)Cc1c(O)ccn(C2CC2)c1=O	2.25
COc1ccc(NS(=O)(=O)c2cccc(NC(=O)c3ccc(Cl)nc3)c2)cc1	1.06
COc1ccc(-n2c3c(cc(C(=O)NNc4ccccc4C)c2=O)C(=O)CC(C)(C)C3)cc1	15.2
COC(=O)c1ccc(NC(=O)c2ccccc2NS(C)(=O)=O)cc1	7.41
O=C(Nc1ccc2c(c1)OCO2)c1ccc(S(=O)(=O)NCC2CCCO2)cc1 (stereo not shown)	14.8
O=C1CC(N2CCN(Cc3ccc4c(c3)OCO4)CC2)C(=O)N1c1cccc2ccccc12 (stereo not shown)	9.23
COc1ccc(NS(=O)(=O)c2ccc3c(c2)[C@H]2C=CC[C@H]2[C@@H](c2ccc(C(=O)O)cc2)N3)cc1	18.1
COC(=O)c1cc(C#N)c(OC(C)C)nc1C	5.15
Cc1ccccc1N1C(=O)CC2(CCCC2)CC1=O	12.5
CCOC(=O)C(C(C)=O)C(c1ccc(OC)cc1)C(C(C)=O)C(=O)OCC (stereo not shown)	-0.0659
CC1(C)CC(=O)c2c(n(-c3cccc4ccccc34)ccc2=O)C1	15
COC(=O)C1=C(C)N(Cc2ccc(OC)c(OC)c2)C(=O)C1	8.42
Cc1cc(C)n(C(=O)CNc2ccc(C)c(C)c2)n1	8.86
Cn1c(C(=O)Nc2ccc3c(c2)OCCO3)cc2c(=O)n(C)c3ccccc3c21	8.01
O=C(N/N=C/c1ccc2c(c1)OCO2)C1COc2ccccc2O1 (stereo not shown)	17.2
COc1ccc(N(C(C)C(=O)NCc2ccco2)S(C)(=O)=O)cc1 (stereo not shown)	8.88
Cc1ccc(NS(=O)(=O)c2ccc3[nH]c(=O)oc3c2)c(C)c1	6.5
CCOC(=O)/C(=N\Nc1ccccc1)c1csc(Nc2ccc(C)cc2)n1	10.1
COC(=O)c1sc(-c2ccccc2)cc1NC(=O)c1ccc(F)cc1	6.03
CCCCCNC(=O)c1cc(S(=O)(=O)N2CCCCC2)ccc1F	-4.63

Compound	hERG current change (%, negative = inhibition) at 1uM [%]
C=CCN(CC(=O)O)S(=O)(=O)c1ccccc1C(F)(F)F	10.8
COc1ccc2c(CC(=O)N[C@@H](Cc3c[nH]c4ccccc34)C(=O)O)cc(=O)oc2c1	49.3
Cc1cc(/C=N/O)c(C)n1-c1ccc(Br)cc1	5.4
CCCCOC(=O)c1cccc(NC(=O)CC)c1	-1.41
Cc1ccc(C(=O)Nc2c(-c3cccs3)nc3cc(C)ccn23)cc1	6.61
COc1ccc2nc(-c3ccc(Cl)cc3)cc(C(=O)O)c2c1	23
Oc1c(Br)cc(/C=N/n2c(-c3ccccc3)n[nH]c2=S)cc1Br	19.3
C1=C(CCNCC2CCCCC2)CCCC1.Cl	-8.71
CCC(C)NC(=O)Cn1nc(C(F)(F)F)c2c1CCCC2 (stereo not shown)	12.3
CCOC(=O)Cn1c(=O)oc2cc(S(=O)(=O)NCc3ccccn3)ccc21	2.39
O=[N+]([O-])c1ccc(NCCNc2ccc(Cl)nn2)cc1	-14.1
O=C(NCCc1ccc(Cl)cc1)C1=CC=CN2CCS(=O)(=O)N=C12	0.873
COc1ccc2[nH]c(=O)c(CN(C(=O)C3CCCO3)c3ccc(C)cc3)cc2c1 (stereo not shown)	1.96
COc1cccc(C(=O)Nc2cccc(C(C)=O)c2)c1	11.4
Cc1cccc(NC(=O)Nc2cc(C)on2)c1	12
Cc1ccc(-c2noc(C3CCCN(C(=O)c4cccc([N+](=O)[O-])c4)C3)n2)o1 (stereo not shown)	-20.7
Nc1nnc(SCC(=O)Nc2ccc(S(=O)(=O)N3CCOCC3)cc2)s1	-3.77
O=[N+]([O-])c1ccccc1S(=O)(=O)NCCC1=CCCCC1	13
